# Measured values from the supplement of paper PMC12217912.
# Some of the results follow. Sequences were assembled here from the parent chain. Values near 0.05 are background.
# B1: TEV protease; numbered along this chain (parent)
# chain: MGESLFKGPRDYNPISSSICHLTNESDGHTTSLYGIGFGPFIITNKHLFRRNNGTLVVQSLHGVFKVKDTTTLQQHLVDGRDMIIIRMPKDFPPFPQKLKFREPQREERICLVTTNFQTKSMSSMVSDTSCTFPSGDGIFWKHWIQTKDGQCGSPLVSTRDGFIVGIHSASNFTNTNNYFTSVPKNFMELLTNQEAQQWVSGWRLNADSVLWGGHKVFMVKPEEPFQPVKEATQL
# Variants of: B1
# Assay: raw area under fraction-flipped curve 0-4 h after induction (AUC4h, not background-subtracted), DNA-recorder readout of cleavage of the substrate (dimensionless); higher = more cleavage of the substrate by the protease variant
# Conditions: temperature: 34 °C; time window: 0-4 h after rhamnose induction
# Protocol: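 In vivo DNA recorder in E. coli TOP10(DE3) ΔrhaA at 34 °C. Each TEVp single-site mutant (parent TEVp 0) is paired with a single-site variant of the 7-mer TEVs (canonical ENLYFQ|S). The substrate sits between flexible linkers in a Bxb1-sfGFP-TEVs-SsrA fusion, so cleavage stabilises Bxb1 and speeds flipping of a recombination array, read by NGS. The value is the raw area under the fraction-flipped curve over 0-4 h after rhamnose induction (AUC4h), with ≥20 reads per time point. It is not background-subtracted; inactive controls average about 0.047.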
# 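Note: Bxb1 expression induced with 0.2% (w/v) L-rhamnose at OD600 near 0.5, cultures sampled hourly, flipped fraction per protease–substrate barcode pair counted by paired-end Illumina sequencing.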
Variant,area with substrate ENLYFQA,area with substrate ENLYFQC,area with substrate ENLYFQG,area with substrate ENLYFQI,area with substrate ENLYFQL,area with substrate ENLYFQM,area with substrate ENLYFQP,area with substrate ENLYFQR,area with substrate ENLYFQS,area with substrate ENLYFQT,area with substrate ENLYFQW,area with substrate ENLYFQY,area with substrate ENLYFQD,area with substrate ENLYFQE,area with substrate ENLYFQH,area with substrate ENLYFQK,area with substrate ENLYFQN,area with substrate ENLYFQF,area with substrate ENLYFQV,area with substrate ENLYFQQ
I167V,0.0965,0.0911,0.101,0.0592,0.057,0.072,0.0503,0.0643,0.0941,0.0561,0.0588,0.0739,,,,,,,,
S135F,0.0643,0.0505,0.0637,0.0435,0.0582,,0.0617,0.0414,0.0648,0.0624,0.0689,,0.0643,0.053,0.0522,0.0584,0.0596,,,
K142W,0.0861,,,0.0517,0.0536,0.0593,,0.0668,0.0736,0.0568,0.0757,,0.0523,,0.0587,0.0952,0.0553,0.0846,0.06,
P155I,0.0768,0.0717,0.076,,0.0268,0.0353,0.0707,,0.0658,0.059,0.068,,0.0591,0.0633,,,,0.0464,0.0303,
Q146V,0.0546,0.122,0.11,0.051,0.0474,,,0.0464,0.106,0.064,,,0.076,,,0.105,0.0782,,,
Q146D,0.0893,,0.0878,0.0534,0.0631,,0.0565,0.0577,0.105,,0.0664,0.0693,0.0714,,,0.0651,0.0692,,,
Q146P,0.0943,0.109,0.0935,,,0.0816,0.0646,,0.103,0.0725,0.082,0.0984,,,,0.0658,0.0927,,0.0529,
D149T,0.0887,0.0944,,0.0518,0.0543,0.0679,0.0623,0.0603,0.0878,0.0681,0.0606,,,,,0.0516,0.0735,0.0782,0.0649,
G136C,0.0914,0.117,0.0075,0.053,0.0579,0.11,0.0461,0.0355,0.111,0.0622,,0.0743,0.0741,,0.0871,0.0717,0.0786,0.0963,,
T147M,0.0855,0.0938,0.0956,,,,,0.0642,0.0859,0.0818,,0.0658,,,0.0067,0.0583,0.0691,,0.0591,
V165P,0.0305,0.0683,0.0843,,,,0.0548,,0.0533,0.0585,0.0386,,0.0546,,,0.0487,0.0455,,0.049,0.0439
I164G,0.0537,,,0.0649,0.0521,,0.0466,0.045,0.0517,,0.0648,0.054,,,0.0493,0.0508,0.0549,0.0581,,
Q151N,0.0691,0.0758,0.0923,,,0.0726,0.0575,0.0584,0.0757,0.0643,0.0616,0.0647,0.0637,,0.0715,0.0466,0.0644,,0.0557,
S158N,0.071,0.0819,,0.0771,0.0548,0.0602,0.0459,,0.0802,0.0959,0.0493,,0.0603,,,,0.0639,0.0582,0.0502,
S158Y,0.066,0.0528,,0.0656,0.0506,0.04,,0.0416,0.0536,0.0454,0.0479,0.0343,0.0582,,0.0433,0.0569,0.0498,,,
T159I,0.0775,,0.0758,,,0.0838,0.0532,0.0579,0.109,0.0782,,,,,,,0.058,,,
F163I,0.058,0.054,0.141,0.0374,0.0608,,,0.0644,0.0855,0.0567,,0.0784,0.0666,0.0674,,0.0797,,0.0513,0.059,
L156R,0.0455,0.0588,0.0415,0.023,0.033,,0.0567,,0.0491,0.0448,,0.0451,,,,0.0447,0.0514,,,
K148C,0.08,0.109,0.0957,,0.063,0.104,0.0707,0.0541,0.0962,0.0383,0.0468,0.141,,,0.0732,0.0553,0.0601,,0.0773,
F140V,0.0634,0.0746,0.0666,0.0608,0.0687,0.0585,0.0563,0.0565,0.0685,0.0553,0.0546,0.0591,0.0664,0.0523,,0.056,0.0611,0.0444,0.0456,0.0566
G166F,0.0467,0.047,0.0621,0.0363,0.0538,0.0388,0.0456,0.0359,0.0495,0.0485,0.0531,0.0491,,,,,0.058,,0.0569,0.0435
D137V,0.0958,0.117,0.0689,0.049,0.0593,0.097,0.0605,0.0603,0.106,0.058,,,,,0.0745,,0.0779,,0.0612,
G162F,0.0781,0.0982,0.0915,0.042,0.0585,0.0746,0.0472,0.0601,0.0842,0.0621,0.0291,0.093,0.0608,,0.0799,0.0602,0.0711,0.0562,0.0658,
G162D,0.0908,,,0.0654,0.0516,0.0877,,0.0481,0.0967,,0.0723,,0.0738,,0.0768,0.0947,0.0803,,0.0567,0.0864
G162L,0,,0.0653,,0.0567,0.0952,,0.0537,0.086,0.0566,,,0.0653,,0.0713,0.0504,0.0747,,0.0569,0.0642
G162R,0.143,0.118,,0.0546,0.0361,0.0945,0.0534,,0.094,0.0609,0.0503,0.0645,,,,,0.0422,,,0.0863
